In all, about 33,000 sequences were measured (“E-score (-0.5 to 0.5)”: median about -0.021, highest 2% from about 0.32 on). Some of the results follow.
molecular target: T1, Zap1 (UniProt P47043); assay: PBM E-score (8-mer binding enrichment) (E-score (-0.5 to 0.5)); higher = stronger / more preferred TF binding; most listed sequences are background and not binding sites; details: protein concentration: 200 nM; construct: GST-full length
T1 sequence: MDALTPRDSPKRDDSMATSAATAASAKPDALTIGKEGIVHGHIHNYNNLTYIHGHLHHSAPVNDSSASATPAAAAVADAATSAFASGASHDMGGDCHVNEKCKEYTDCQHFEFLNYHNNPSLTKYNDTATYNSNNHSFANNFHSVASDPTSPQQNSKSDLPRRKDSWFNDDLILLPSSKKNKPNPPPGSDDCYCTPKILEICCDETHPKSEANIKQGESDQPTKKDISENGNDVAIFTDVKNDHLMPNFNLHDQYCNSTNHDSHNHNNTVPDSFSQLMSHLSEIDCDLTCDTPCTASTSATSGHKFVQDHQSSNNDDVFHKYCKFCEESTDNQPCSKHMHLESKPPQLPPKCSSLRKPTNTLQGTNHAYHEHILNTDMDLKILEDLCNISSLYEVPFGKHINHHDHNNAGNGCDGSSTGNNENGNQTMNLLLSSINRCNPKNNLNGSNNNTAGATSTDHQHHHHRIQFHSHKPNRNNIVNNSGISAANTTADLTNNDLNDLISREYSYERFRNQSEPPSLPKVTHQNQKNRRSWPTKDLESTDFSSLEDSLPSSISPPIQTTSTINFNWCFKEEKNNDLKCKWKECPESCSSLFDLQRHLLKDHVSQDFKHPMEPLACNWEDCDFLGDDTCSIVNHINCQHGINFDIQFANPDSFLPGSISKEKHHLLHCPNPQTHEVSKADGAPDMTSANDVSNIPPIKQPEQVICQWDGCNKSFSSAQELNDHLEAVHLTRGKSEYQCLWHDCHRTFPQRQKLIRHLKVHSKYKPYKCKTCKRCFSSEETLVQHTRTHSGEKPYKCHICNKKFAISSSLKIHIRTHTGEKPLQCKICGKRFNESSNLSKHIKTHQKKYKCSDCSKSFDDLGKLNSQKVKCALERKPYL
Summary of the method: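 Bound GST-tagged yeast transcription factors, applied at about 100-200 nM to double-stranded universal all-10-mer Agilent arrays, were detected with fluorescent anti-GST. Scans were normalised with masliner. A modified Wilcoxon-Mann-Whitney statistic, the E-score, was assigned to each ungapped eight-base word pooled with its reverse complement by the Universal PBM Analysis Suite.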

| Sequence | PBM E-score |
| --- | --- |
| CGACAGGC | -0.313 |
| ACCTCCAG | 0.0626 |
| AAGCTATC | -0.13 |
| AAAAGCGT | -0.06 |
| CAGGAACG | -0.141 |
| ATGTACGA | 0.0667 |
| GTAATTCA | 0.171 |
| GCCATGAC | -0.0112 |
| CTGAGAGA | -0.102 |
| ATCAGTGC | -0.107 |
| GTAACCGA | 0.346 |
| ATGAAGTG | -0.156 |
| CCACAGCA | -0.161 |
| ACCGCAAT | 0.319 |
| CATCTTGC | -0.0824 |
| AACACGCG | 0.126 |
| AGCGTAAA | -0.0342 |
| CAAAAATC | -0.0217 |
| ATGCTAAA | 0.105 |
| GGTGCGTA | 0.0446 |
| AAAATTTG | 0.0854 |
| AGCGCTCC | -0.271 |
| GGAGCACA | -0.127 |
| ATGGTGTA | 0.104 |
| GCGGATCA | -0.0752 |

| Sequence | PBM E-score |
| --- | --- |
| TCTCACCA | -0.0503 |
| CATATGCC | -0.052 |
| ATTTGCCA | -0.00495 |
| AGATAACT | -0.118 |
| CGATGGGA | -0.201 |
| GTGTCACA | 0.0541 |
| CCAGGGAA | -0.139 |
| ACGTTACC | 0.172 |
| TGGGTTAA | 0.359 |
| ACACCTGG | -0.163 |
| GAAGGTCC | -0.144 |
| GGTCAATA | 0.148 |
| ATGGTTCG | 0.0884 |
| GCAGCAGC | -0.173 |
| ACGACGCG | 0.0934 |
| ACGTACAG | -0.237 |
| CACTGTGG | -0.176 |
| TAGACTAA | -0.0299 |
| AGGAGATG | -0.282 |
| GCACATCA | -0.178 |
| CGTTGATA | 0.0582 |
| GGGCCAAA | -0.0875 |
| ATTCAATC | 0.014 |
| GTTCCAGA | 0.1 |
| GAGTTGGC | -0.232 |

| Sequence | PBM E-score |
| --- | --- |
| AGTAAGGC | -0.254 |
| CCGGAAGA | 0.0742 |
| AACCGACG | 0.0424 |
| AAACCATC | 0.128 |
| CCCCAATA | 0.132 |
| AGTTCTAA | -0.0583 |
| CATACGCC | -0.299 |
| ACCACGCA | 0.135 |
| AGTGACTC | 0.0217 |
| CTAGTGTC | 0.0384 |
| GTTCTCGA | 0.0158 |
| AGGACGTG | -0.264 |
| AATTAATT | 0.0914 |
| ATCCGGGC | -0.0217 |
| AATCCCCG | -0.0999 |
| GTTCGATA | 0.0733 |
| TAAGTCGA | -0.0631 |
| AGGCCCCC | -0.281 |
| ACGTGAGA | 0.0217 |
| CTGGATAA | 0.0167 |
| GCTTTTTA | 0.153 |
| ACTTATGA | 0.0246 |
| AGAGAGTG | -0.212 |
| ACCTTGGA | 0.195 |
| AAAGGTCC | 0.245 |

| Sequence | PBM E-score |
| --- | --- |
| AGCGACTA | 0.0332 |
| CTCGCGCC | -0.018 |
| CAAGGCTA | -0.0665 |
| ACATCCTA | -0.167 |
| ACTCTTTA | -0.0775 |
| AATGCGTA | -0.0664 |
| GTGCGTGA | 0.0239 |
| AGTATAGG | 0.0506 |
| CTAATAAC | 0.223 |
| CCAGCGAC | -0.082 |
| AAAAGACC | 0.17 |
| CATGCAAC | 0.0184 |
| CTTGCATC | -0.203 |
| ATGCCGCC | -0.293 |
| CTTGCGAA | 0.139 |
| ACTGCGTC | -0.214 |
| ACTCGTTC | 0.0381 |
| ATCGTCGG | -0.0412 |
| GAACGCAA | 0.113 |
| ACGGAAAT | 0.123 |
| AGGTTAGG | 0.348 |
| AACAAAAA | 0.297 |
| ACCCAGGT | 0.239 |
| TAGCACCA | 0.0858 |
| GCGAGTCA | 0.023 |

| Sequence | PBM E-score |
| --- | --- |
| CGCAACTC | 0.151 |
| AAGGGCCC | -0.00803 |
| ATCACGCG | 0.0944 |
| ATACTAGG | 0.0465 |
| AAAAGGTG | 0.173 |
| GGGCAACA | -0.206 |
| CACAAGCA | 0.0117 |
| AACTGAGA | -0.0795 |
| ATTCAAGG | 0.182 |
| GATGATAA | 0.134 |
| CCCAATCG | -0.0247 |
| ACCAGCGT | -0.0993 |
| ATCATGGG | 0.147 |
| AGCGTACA | -0.109 |
| AGGCCCGG | -0.136 |
| CCCCCGAG | -0.222 |
| AGAAGTTA | 0.0556 |
| CTCAAATA | -0.174 |
| GGTAAGAC | 0.102 |
| CTTATACA | 0.0505 |
| AGCTGGAT | -0.0594 |
| CTGATTTA | 0.0125 |
| ACAAGGCC | -0.152 |
| ACCAATCC | 0.0671 |
| CCTTGAAC | 0.0795 |

| Sequence | PBM E-score |
| --- | --- |
| GACACTGA | -0.0233 |
| AAACTGGT | 0.205 |
| GTAGCACA | 0.017 |
| GAGTGTAC | -0.135 |
| AGTGACGA | 0.151 |
| AGAGACAT | -0.104 |
| CACGTCCG | -0.161 |
| AGAGTTTA | 0.104 |
| GGGGTTAA | 0.403 |
| CGGACGGA | -0.276 |
| AACCGGAT | 0.198 |
| ATGTTCCG | -0.28 |
| GATCATCC | -0.105 |
| CCCGCACC | -0.0206 |
| ACAATTAG | -0.026 |
| AAAACGAG | 0.0264 |
| CGTCAGTA | -0.119 |
| GAGGGAGC | -0.235 |
| CCGGCGAG | -0.281 |
| AGGTTTAA | 0.192 |
| TGATATAA | 0.0544 |
| ATCCCCTG | -0.214 |
| ACTACAGA | 0.177 |
| ACTGCTTG | -0.247 |
| GAACACAA | 0.0187 |

| Sequence | PBM E-score |
| --- | --- |
| ATCGCGCA | -0.0638 |
| AATATTAG | 0.176 |
| GCCTCTCC | -0.188 |
| GTCATCAC | 0.109 |
| ATGCTGAA | -0.0737 |
| AAGCCATC | -0.0723 |
| ATTAGTTA | 0.244 |
| CAGCCGAC | -0.249 |
| TCCTTAGA | -0.0598 |
| AGACCTGA | 0.00106 |
| CACGTCCA | -0.225 |
| ATTCAGTG | -0.119 |
| AGACTATC | -0.198 |
| AGGCGTGC | -0.178 |
| TAGGGAGA | -0.107 |
| ACAGTAGG | -0.209 |
| AGCGCACG | -0.228 |
| AACACAGG | -0.201 |
| AGAGGATG | -0.0538 |
| CTAATGCC | -0.122 |
| GGTATCGA | 0.243 |
| ACCTCACG | 0.195 |
| CGTGAACC | -0.0718 |
| AGTTCGAA | 0.0772 |
| CTTCGGTA | 0.0495 |

| Sequence | PBM E-score |
| --- | --- |
| GCCTCTTA | -0.0893 |
| CTCTCAAC | -0.0913 |
| GTAACAAA | 0.226 |
| CACTGACC | 0.133 |
| CGATTACC | 0.169 |
| AGGCTAAG | -0.201 |
| TCAGAGAA | -0.116 |
| AGACAAAT | 0.0677 |
| CTTCGCTA | -0.156 |
| ACCGTATC | 0.152 |
| CATATAAG | 0.133 |
| CTTCATAA | 0.1 |
| CCACTAGG | -0.0283 |
| AATACCGC | 0.146 |
| GGGTCCTA | 0.0382 |
| ACTTCCAT | -0.0676 |
| CATTGACC | 0.0717 |
| ATTTTCCA | 0.108 |
| CGACAACA | 0.0946 |
| GGTCGCAC | -0.0707 |
| GAGCTACC | -0.0317 |
| CCAATAAG | 0.0828 |
| GCTGTGCC | -0.0965 |
| TGCCCGAA | -0.141 |
| GAGAAGCC | -0.33 |

| Sequence | PBM E-score |
| --- | --- |
| ACGCCTTA | -0.182 |
| CCACGGAA | -0.00181 |
| GAAGTCGC | -0.182 |
| GTATCCGA | -0.00814 |
| ATGGGGCC | -0.246 |
| AACAGAGA | -0.144 |
| CTATGTTC | -0.0472 |
| CAATGAAG | 0.0431 |
| AATAGTAT | 0.186 |
| CCATCAAC | -0.0436 |
| GCCAGCGA | -0.128 |
| AATAAGTC | -0.159 |
| AGACCACT | 0.191 |
| ACACTAGC | -0.123 |
| AACGGTTA | 0.397 |
| AACTTATT | 0.174 |
| AAGTATCC | -0.0723 |
| AACTGTAG | 0.0607 |
| CGGACACG | -0.0774 |
